Measured values published in PubChem BioAssay AID492947 (National Center for Advancing Translational Sciences (NCATS), 2010).
Among all 330,000 compounds or so, about 80 (0.02%) were called active. Inconclusive means that the source gave no clear call. Such entries were picked first, then a sample of the others. Calls follow the shape of the dose curve; as a rule, active = well fitted activation curve with a large enough effect; inconclusive = small, poorly fitted or top-dose-only effect; inactive = flat fitted curve, though single readings scatter. No potency is given beside an inconclusive call; the fits are too rough.

Target: Beta-2 adrenergic receptor (Homo sapiens) (UniProt P07550)
Chain of UniProt P07550 (P07550 whole entry, looked up): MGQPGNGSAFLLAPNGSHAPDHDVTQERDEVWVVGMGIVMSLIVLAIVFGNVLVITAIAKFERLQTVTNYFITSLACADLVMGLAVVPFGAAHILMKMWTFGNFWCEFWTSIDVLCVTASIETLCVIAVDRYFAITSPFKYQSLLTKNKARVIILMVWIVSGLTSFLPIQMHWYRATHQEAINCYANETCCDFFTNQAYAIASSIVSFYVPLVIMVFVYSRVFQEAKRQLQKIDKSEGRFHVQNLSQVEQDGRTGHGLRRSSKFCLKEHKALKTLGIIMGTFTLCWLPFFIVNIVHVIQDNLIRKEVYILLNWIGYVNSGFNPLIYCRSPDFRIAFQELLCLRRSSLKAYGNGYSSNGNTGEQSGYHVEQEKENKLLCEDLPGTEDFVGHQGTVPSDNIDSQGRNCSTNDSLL
Test: qHTS assay of beta-arrestin-biased ligands of beta2-adrenergic receptor; also: nearly all actives have a fitted effect of over 65% in size
Conditions: beta-arrestin recruitment to beta2AR, cell-based reporter; series mostly up to 46.1 µM
Outline: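 Arrestin-recruitment (Tango) reporter: ligand-bound beta2-AR recruits beta-arrestin, releasing tTA, which upregulates luciferase. Titrations of up to 46 microM incubated 18 hr at 37 degrees C before luminescent readout.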
Potency is read from the fitted curve at half-maximal effect; tags tell the direction and shape of the fitted curve.

Structure (SMILES)	Potency
O=C(O)CCCCCN1C(=O)/C(=C/c2ccncc2)SC1=S	inconclusive [rising, single point]
C(=N\Nc1ncnc2ccccc12)/c1ccccc1	inconclusive [rising, single point]
CC(=O)NC(=O)c1ccc(-c2ccc(Cl)cc2)o1	inconclusive [rising, single point]
COC(=O)c1c(NC(=O)CN2CCC3(O)CCCCC3C2c2ccc(F)cc2)sc(C)c1C (centres undefined)	inconclusive [activator, partial curve]
COc1ccc(C(=O)C2CCCN(C(=O)c3ccc(F)cc3)C2)cc1OC (centres undefined)	inconclusive [rising, single point]
CCCCn1c(SCC(=O)NC2CCCC2)nnc1-c1ccco1	inconclusive [activator, partial curve]
O=S(=O)(N1CCOCC1)N1CCOCC1	inconclusive [rising, single point]
COc1cc(CNCc2ccccc2)c(Br)cc1OC1CCCC1	inconclusive [rising, single point]
COc1ccc(C(=O)Nc2ccc(-c3n[nH]c(=S)o3)cc2)cc1	inactive
Cc1cccc(C)c1Nc1c(-c2ccccn2)nc2ccccn12	inconclusive [rising, single point]
Cc1cnc(NC(=O)c2ccc3c(c2)OCCO3)s1	inactive
COc1ccc(C(=O)NC(=S)N2CC(C)OC(C)C2)cc1 (centres undefined)	inactive
CC(C)NS(=O)(=O)c1ccc(NC(=O)C(C)Oc2ccc(C(=O)c3ccccc3)cc2)cc1 (centres undefined)	inconclusive [rising, single point]
Oc1[nH]c(N=C2N=c3ccccc3=N2)c2ccccc12	inconclusive [activator, partial curve]
CCNS(=O)(=O)c1ccc(NC(=O)c2ccccc2SCCOC)cc1	inconclusive [rising, single point]
Fc1ccc(CN2CCC(Cc3ccccc3)CC2)cc1F	inactive
COc1ccccc1-n1c(SCC(=O)O)nc2c(sc(=S)n2-c2ccc(Cl)c(C)c2)c1=O	inactive
O=C(Nc1nc(-c2nc3ccccc3s2)cs1)c1ccc(S(=O)(=O)N2CCOCC2)cc1	inactive
CCn1nnc(NC(=S)NC(=O)c2ccc(-c3cccc(Cl)c3)o2)n1	active: 17.8 µM
FC(F)(F)c1nc2ccccc2nc1N/N=C\c1ccccc1	inconclusive [rising, single point]
COc1ccc(NC(=O)C(CC(=O)O)Cc2ccc(Cl)cc2)cc1 (centres undefined)	inactive
O=C(OCc1nc2ccccc2s1)c1cc2ccccc2oc1=O	inactive
O=C(NC(=S)Nc1cccc(NC(=S)NC(=O)c2ccco2)n1)c1ccco1	inconclusive [rising, single point]
Cc1ccc(-n2c(C)nn(-c3ncc(C(F)(F)F)cc3Cl)c2=O)cc1	inconclusive [rising, single point]
CN1CCN(c2ccc(S(=O)(=O)N3CCCCC3)cc2NC(=O)/C=C/c2ccc(Cl)c([N+](=O)[O-])c2)CC1	inconclusive [activator, partial curve]

Structure (SMILES)	Potency
Cc1ccc(-c2ccc(/C=N/NC(N)=S)o2)cc1	inconclusive [rising, single point]
COc1ccc(OC)c(S(=O)(=O)N/N=C(/C)c2c[nH]c3ccccc23)c1	inconclusive [rising, single point]
C=CCNc1nc(Cl)nc(NC2CCCCC2)n1	inconclusive [rising, single point]
Cc1cs/c(=N\N=C2CCCCC2)n1Cc1ccco1	inconclusive [rising, single point]
Cc1onc(-c2c(F)cccc2Cl)c1C(=O)Nc1nnc(C(F)(F)F)s1	inactive
Cn1cccc1C(=O)Nc1nc(-c2ccccn2)cs1	inconclusive [activator, partial curve]
COc1ccc(N2C(=O)C3C(C2=O)C(C(=O)c2ccccc2)N2CCCC32)cc1 (centres undefined)	inconclusive [rising, single point]
Clc1cccc(C2Nc3cccc4cccc(c34)N2)c1Cl	active: 2.82 µM
Cc1cccc(-n2ncc3c(N(C)C4CCCCC4)ncnc32)c1	inactive
O=C(CN1CCOCC1)NNC(=O)c1ccc(Cl)cc1	inactive
O=C(NC(=S)Nc1ccccn1)c1ccccc1	inconclusive [rising, single point]
CC(C)c1ccccc1-n1c(SCC(=O)N2CCc3ccccc3C2)nc2ccccc2c1=O	inconclusive [activator, full curve]
O=C(Nc1ccccc1)N1CCCC(c2nc(-c3cccs3)no2)C1 (centres undefined)	inconclusive [rising, single point]
CCCOc1ccc(CN(CCO)CCO)cc1[N+](=O)[O-]	inconclusive [rising, single point]
O=C1c2ccccc2C(=O)N1CCC(c1ccc(F)cc1)c1ccco1 (centres undefined)	inconclusive [rising, single point]
CCc1ccc(NC(=S)NC2CCN(Cc3ccccc3)CC2)cc1	inactive
CC(C)Oc1ccc(/C=N/NC(N)=S)cc1	active: 16.4 µM
C/C(=N\NC(=S)NC1CCCCC1)c1ccc(C)o1	inconclusive [activator, full curve]
O=C1C2C(C(=O)N1/N=C/c1ccc([N+](=O)[O-])o1)C1C=CC2C12CC2 (centres undefined)	inconclusive [rising, single point]
Cc1cc(C)c(NC(=O)C(=O)NCc2ccco2)c(C)c1	inconclusive [rising, full curve, poor fit]
COc1ccc2nc(/N=C/c3c(C)[nH]n(-c4ccc(C)cc4C)c3=O)sc2c1	inconclusive [rising, single point]
CCOC(=O)C1=C(COC(=O)/C=C/c2cccc([N+](=O)[O-])c2)NC(=O)NC1C (centres undefined)	inactive
O=C(Nc1nc2ccccc2[nH]1)c1ccc(F)c(S(=O)(=O)N2CCOCC2)c1	inactive
CSCC[C@H](NC(=O)NC1CCCC1)C(=O)O	inactive
CCCCN(CC)CCNC(=S)Nc1ccc2nc(N3CCN(C)CC3)cc(C)c2c1	inconclusive [rising, single point]

Structure (SMILES)	Potency
S=c1[nH]nc(-c2ccco2)n1/N=C/C(Cl)=C/c1ccccc1	inconclusive [rising, single point]
COc1cc(CN(C2CCCCC2)S(=O)(=O)c2ccc(S(=O)(=O)N(C)C3CCCCC3)cc2)cc(OC)c1OC	inconclusive [rising, single point]
CCOC(=O)c1ccc(NC(=O)CSc2nnc(CCc3ccc(C)o3)n2-c2ccccc2)cc1	inactive
CC(C)n1cnc2c(NCc3ccccc3)cc(OCC3CCN(C)CC3)cc21	inconclusive [rising, single point]
C=C(C)CNC(=S)N/N=C/c1ccco1	inconclusive [rising, single point]
CCN(CC)S(=O)(=O)c1cccc(NC(=O)c2ccc(-n3nc(C)cc3C)cc2)c1	inactive
COc1ccc2cc(-c3cc(C(=O)O)c4ccccc4n3)ccc2c1	inactive
O=C(Cc1cccc2ccccc12)N/N=C/c1ccc(Sc2cccc3cccnc23)o1	inconclusive [rising, single point]
COc1ccc(OC)c(C(=O)CSc2nnc(Cc3cccs3)n2C)c1	inconclusive [rising, single point]
COc1ccccc1C(=O)NC(=O)COC(=O)c1ncc(Cl)c(Cl)c1Cl	inactive
COc1ccc(NC(=S)N/N=C/c2ccc(F)cc2)cc1OC	inconclusive [rising, single point]
N[C@@H](Cc1cc(I)c(Oc2ccc(O)c(I)c2)c(I)c1)C(=O)O	inactive
Cc1cc(C)cc(NC(=O)CC23CC4CC(C2)CC(n2nnc(C)n2)(C4)C3)c1	inconclusive [rising, single point]
O=C(N/N=C/c1cn(-c2ccccc2)nc1-c1cc2ccccc2o1)c1cccnc1	inconclusive [rising, single point]
COc1ccc(NC(=S)NC(=O)c2ccc(Br)o2)cc1	inconclusive [rising, single point]
COc1ccc(CS(=O)/C(Cl)=C(/Cl)C(=O)Nc2ccc(OC)nc2)cc1 (centres undefined)	inactive
Cc1ccc2c(c1)N(C(=O)CCC(=O)NC1CCC(C)CC1)CCO2 (centres undefined)	inactive
CCc1ccc(/C=C2\SC(=S)N(CCCC(=O)Nc3ccc(C(=O)O)cc3)C2=O)cc1	inactive
C[C@@H]1CN([C@H](C)CO)C(=O)c2cc(NC(=O)Nc3cccc4ccccc34)ccc2O[C@H]1CN(C)Cc1ccc(C(F)(F)F)cc1	inactive
CCOc1cc(C2C(C(=O)N3CCOCC3)=C(C)NC3=C2C(=O)CCC3)ccc1O (centres undefined)	inactive
Cc1c([N+](=O)[O-])c(C(=O)Sc2ccc(Br)cc2)nn1C	inconclusive [rising, single point]
CC1=NOC(=O)/C1=C/c1ccc(-c2ccc(Cl)cc2)o1	inconclusive [rising, single point]
CCCOCc1ccc(O)c2ncccc12	inconclusive [rising, single point]
COc1cc(CN2CCCCC2C(=O)Nc2ccc(Oc3ccccc3)nc2)ccc1O (centres undefined)	inconclusive [rising, single point]
